The results in this text go back to patent publication US5434182A (priority 1993, dated 1995).

Like-named read-outs stand apart in the source and are kept apart here.

Experiment [1] concerns HSV-1.
Experiment [2] has as its system E. coli. As to the kind of experiment: microbe, parasite or virus in culture. The following applies: Escherichia coli, read-out: Reduction of bacterial concentration, E. coli.
The test system of experiment [3] is HSV-1. As to the kind of experiment: microbe, parasite or virus in culture. The following applies: for log reduction at 1000 µg/mL / log reduction at 2000 µg/mL / log reduction at 4000 µg/mL: Human alphaherpesvirus 1, read-out: Reduction in HSV-1 titer.
For experiment [4], the system named is S. epidermidis. Kind of experiment: microbe, parasite or virus in culture. The settings on record: Staphylococcus epidermidis, read-out: Reduction of bacterial concentration, S. epidermidis.
For experiment [5], the system named is H. influenza. Kind of experiment: microbe, parasite or virus in culture. The following applies: read-out: Reduction of bacterial concentration, H. influenza.
For experiment [6], the system named is HSV-1. As to the kind of experiment: microbe, parasite or virus in culture. The settings on record: Human alphaherpesvirus 1, read-out: Reduction in HSV-1 titer.
Experiment [7] relates to S. epidermidis.
The subject of the next experiment is VSV. Kind of experiment: microbe, parasite or virus in culture. The settings on record: Vesicular stomatitis virus. Type of experiment: cell-based.
Experiment [8] concerns S. enteritidis. The settings on record: 2 mg/ml.
Experiment [9] deals with S. enteritidis. As to the kind of experiment: microbe, parasite or virus in culture. The following applies: Salmonella enterica, read-out: Reduction of bacterial concentration, S. enteritidis.
Experiment [10] has as its system H. influenza. The settings on record: 2 mg/ml.
Experiment [11] concerns E. coli. The following applies: 2 mg/ml.

In the case of `CCCCCCCCCC(=O)OCC(O)CO` (racemic) [Monocaprin (10:0), 1-Monodecanoyl-rac-glycerol], in the experiment with HSV-1 [1], the “effectiveness relative to monolinolein” value is given as “over 60 -fold”. Further, the log reduction at 2000 µg/mL in the experiment on E. coli [2] was ≥ 5; in the experiment with HSV-1 [3], 1.8; in the experiment with S. epidermidis [4], ≥ 4; in the experiment on H. influenza [5], ≥ 8; in the experiment on HSV-1 [6], 2.3. Also, the log reduction at 1000 µg/mL came out at 0.8 in the experiment with HSV-1 [3] and 0.3 in the experiment on HSV-1 [6]. Moreover, in the experiment on HSV-1 [3], the log reduction at 4000 µg/mL is ≥ 4. In the experiment with HSV-1 [3] (Human alphaherpesvirus 1, read-out: kill of enveloped virus in human serum), the log reduction at 3000 µg/mL is ≥ 4. The log reduction at 500 µg/mL with HSV-1 [6] came to 0.
Take `CCCCCCCC(=O)OCC(O)CO` (racemic) [Monocaprylin (8:0), 1-Monocapryloyl-rac-glycerol]: the log reduction at 2000 µg/mL in the experiment on E. coli [2] is ≥ 5; in the experiment on S. epidermidis [4], ≥ 4; with H. influenza [5] it was ≥ 8.
In the case of `CCCCCCCCCCCC(=O)OCC(O)CO` (racemic) [Monolaurin (12:0), 1-Monolauroyl-rac-glycerol], the “effect on bacteria (scanning electron micrographs)” value with S. epidermidis [7] is “completely disintegrated”. Also, the log reduction at 7500 µM in the experiment with VSV (read-out: Reduction in VSV Titer, 7.5 mM, no sodium taurocholate, human serum) amounted to 0. In the experiment with VSV (read-out: Reduction in VSV Titer, 15 mM, no sodium taurocholate, human serum), the log reduction at 15000 µM was determined as 0. For the same compound, the log reduction at 2000 µg/mL in the experiment on E. coli [2] is 0; in the experiment on S. enteritidis [9], 0; in the experiment on HSV-1 [3], 1.5; in the experiment with S. epidermidis [4] it was ≥ 4; in the experiment on H. influenza [5] it was ≥ 8; with HSV-1 [6] it was 1. For the same compound, the “effect on S. enteritidis in words” value in the experiment on S. enteritidis [8] is reported as “unaffected”. For the same compound, the log reduction at 1000 µg/mL in the experiment with HSV-1 [3] was 0.8; in the experiment on HSV-1 [6], 0.3. The log reduction at 4000 µg/mL with HSV-1 [3] came out at 2. The “inactivation of H. influenzae in words” value with H. influenza [10] was “inactivated”. For the same compound, the log reduction at 500 µg/mL with HSV-1 [6] was determined as 0.3. Moreover, in the experiment on E. coli [11], the “effect on E. coli in words” value is “unaffected”.
As to `CCCCC/C=C\C/C=C\CCCCCCCC(=O)OC[C@@H](O)CO` [Monolinolein (18:2), Monolinolein], in the experiment with HSV-1 [6], the log reduction at 500 µg/mL is 0, the log reduction at 1000 µg/mL is 0.3 and the log reduction at 2000 µg/mL amounted to 0.5.
`CCCCCCCC/C=C\CCCCCCCC(=O)OCC(O)CO` (stereo not drawn) [Monoolein (18:1), Monoolein]: the log reduction at 2000 µg/mL was 0 in the experiment on E. coli [2], 0 in the experiment on S. enteritidis [9], ≥ 4 in the experiment on S. epidermidis [4] and 0 in the experiment on HSV-1 [6]. In addition, the log reduction at 500 µg/mL with HSV-1 [6] is 0. Further, the log reduction at 1000 µg/mL with HSV-1 [6] was 0.
Take “Mono-eicosenoin [Mono-eicosenoin (20:1)]”: the “Reduction of bacterial concentration, S. epidermidis” value with S. epidermidis [7] (2 mg/ml) is ≥ 4.0 log10. For the same compound, the “Reduction of bacterial concentration, S. enteritidis” value in the experiment on S. enteritidis [8] is reported as 0 log10. In addition, in the experiment on E. coli [11], the “Reduction of bacterial concentration, E. coli” value is 0 log10.
